In all, about 270,000 compounds went through this assay and about 5,800 (2.1%) were called active. This list was built around the results that the source calls inconclusive (neither active nor inactive); the mix of calls is not that of the screen. Calls follow the shape of the dose curve; as a rule, active = well fitted inhibition curve with a large enough effect; inconclusive = small, poorly fitted or top-dose-only effect; inactive = flat fitted curve, though single readings scatter. Potencies beside an inconclusive call are fits to weak or partial responses and may not hold up.
Each compound was assayed against Microtubule-associated protein tau (Homo sapiens) (UniProt P10636) (assay: qHTS for Inhibitors of Tau Fibril Formation, Thioflavin T Binding). Conditions: recombinant tau K18 P301L (four-repeat tau fragment), heparin-induced fibrillization, ThT fluorescence; series mostly up to 57.4 µM; activity, negative = inhibition: at the top concentration.
Chain of UniProt P10636 (P10636 whole entry, looked up, the tested form may be a part): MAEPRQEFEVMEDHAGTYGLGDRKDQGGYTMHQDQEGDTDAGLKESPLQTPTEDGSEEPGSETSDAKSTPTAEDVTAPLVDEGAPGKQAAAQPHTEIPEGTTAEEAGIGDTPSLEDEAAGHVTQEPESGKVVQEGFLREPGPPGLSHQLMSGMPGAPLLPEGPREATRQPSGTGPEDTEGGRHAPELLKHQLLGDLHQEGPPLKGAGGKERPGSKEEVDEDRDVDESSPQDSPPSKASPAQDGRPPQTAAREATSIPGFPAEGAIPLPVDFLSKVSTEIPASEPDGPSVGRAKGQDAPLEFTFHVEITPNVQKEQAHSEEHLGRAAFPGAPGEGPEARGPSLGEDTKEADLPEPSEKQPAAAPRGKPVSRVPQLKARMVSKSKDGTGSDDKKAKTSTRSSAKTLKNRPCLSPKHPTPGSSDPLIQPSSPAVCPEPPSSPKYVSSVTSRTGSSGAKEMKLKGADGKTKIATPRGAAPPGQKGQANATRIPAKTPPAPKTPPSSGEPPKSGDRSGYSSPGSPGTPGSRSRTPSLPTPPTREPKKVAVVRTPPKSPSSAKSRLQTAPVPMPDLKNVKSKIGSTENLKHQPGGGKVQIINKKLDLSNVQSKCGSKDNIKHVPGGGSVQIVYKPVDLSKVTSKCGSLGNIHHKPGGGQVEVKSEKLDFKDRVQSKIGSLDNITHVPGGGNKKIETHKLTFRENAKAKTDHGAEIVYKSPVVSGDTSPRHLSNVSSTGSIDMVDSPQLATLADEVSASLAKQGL
How it was run: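 In this qHTS, human K18 P301L tau is incubated with compound and heparin for 6 hr at 37 C, and Thioflavin T fluorescence then reports fibril load.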
With `O=C(CSc1nc2ccccc2n1Cc1ccc(F)cc1)N1CCN(c2ccc(F)cc2)CC1` the “activity, negative = inhibition” value was inactive: -2.5%.
For `Cc1ccc2cccc(OCC(=O)NCc3ccco3)c2n1`, the “activity, negative = inhibition” value was inactive: 2.36%.
With `O=C1CCC(c2ccc(-n3ccnc3)cc2)=NN1` the “activity, negative = inhibition” value was inactive: -13.7%.
With `Cc1ccc(-n2ncc3c(N4CCCCC4)ncnc32)cc1Cl` the Potency was inconclusive: 2.51 µM [inhibitor, full curve].
In the case of `COc1ccc(-c2cc(OC(=O)c3ccccc3C)c3c(C)oc(C)c3c(=O)c2)cc1`, the Potency is reported as inconclusive: 8.91 µM [inhibitor, partial curve].
In the case of `CCc1ccc2oc(C(=O)NCC(c3ccc(Cl)cc3)N3CCOCC3)c(C)c2c1` (centres undefined), the Potency is reported as inconclusive: 28.2 µM [inhibitor, single point].
In the case of `COc1ccc(C2NC3=C(CCCC3)C(C#N)(C#N)C2(C#N)C#N)cc1` (centres undefined), the Potency is reported as active: 25.1 µM.
With `CCc1nnc(NC(=O)CSc2ccc(-c3nc4ccc(C)cc4[nH]3)cn2)s1` the Potency was inconclusive: 0.562 µM [inhibitor, full curve, poor fit].
With `CC(=O)N1CCCc2cc(S(=O)(=O)N(CCN(C)C)Cc3ccccc3)ccc21` the “activity, negative = inhibition” value was inactive: -9.59%.
For `CCOC(=O)c1sc2nc3n(c(=O)c2c1C)CCC(C)CC3` (centres undefined), the Potency was inconclusive: 39.8 µM [inhibitor, partial curve, poor fit].
`NC(=O)CCN1CCN(Cc2cn[nH]c2-c2cccc3ccccc23)CC1` was tested, and the “activity, negative = inhibition” value was inactive: -12.2%.
With `C=CCn1c(SCC(=O)N2CCc3ccccc3C2)nc2sc(C)cc2c1=O` the Potency was inconclusive: 31.6 µM [inhibitor, single point].
For `O=[N+]([O-])c1c(NCCO)cc(N2CCN(Cc3ccc4c(c3)OCO4)CC2)c2nonc12`, the Potency was inconclusive: 25.1 µM [inhibitor, partial curve].
`COc1ccccc1-c1cc(C(=O)N2CCN(c3ccccc3)CC2)no1` was tested, and the Potency was inconclusive: 12.6 µM [inhibitor, partial curve].
In the case of `C=CCn1c(C)cc(C(=O)CSc2n[nH]c(N)n2)c1C`, the “activity, negative = inhibition” value is reported as inactive: -5.7%.
In the case of `CCn1c(SCC(=O)N/N=C/C=C/c2ccco2)nnc1-c1ccc(OC)cc1`, the “activity, negative = inhibition” value is reported as inactive: 12.9%.
In the case of `O=C(Nc1ccc(OCc2cc(=O)n3ccsc3n2)cc1)c1ccc(F)cc1`, the Potency is reported as inconclusive: 1.78 µM [inhibitor, full curve].
For `COc1cc(NC(=O)c2cc3cccc(OC)c3o2)cc(C(=O)Nc2cccc(C(F)(F)F)c2)c1`, the “activity, negative = inhibition” value was inactive: -4.5%.
With `O=c1[nH]c(Cl)nc2c1ncn2C1OC(CO)C(O)C1O` (centres undefined) the “activity, negative = inhibition” value was inactive: 2.32%.
With `CCCCC#CC1C=CC(Oc2ccc(OC)cc2)C(CO)O1` (centres undefined) the activity, negative = inhibition was inactive: -17% [at 11.5 µM].
`O=C(NCCC1=CCCCC1)C1CCN(c2nc3ccccc3o2)CC1` was tested, and the Potency was inconclusive: 5.62 µM [inhibitor, partial curve].
For `CC(=O)n1cc(C(C[N+](=O)[O-])SCCN)c2ccccc21` (centres undefined), the Potency was active: 12.6 µM.
In the case of `O=C(Nc1nc(-c2ccccc2)cs1)c1ccc(Br)o1`, the Potency is reported as inconclusive: 2.51 µM [inhibitor, partial curve].
For `Cc1cc(C)c(-c2cc(C(=O)Nc3c(C)n(C)n(-c4ccccc4)c3=O)[nH]n2)c(O)c1`, the Potency was inconclusive: 39.8 µM [inhibitor, partial curve].
With `CCc1ccc(C2=CC(c3cccc(C)c3)n3c(nc4ccccc43)N2)cc1` (centres undefined) the Potency was inconclusive: 28.2 µM [inhibitor, single point].
With `CN(C)c1ccc(NC(=O)CC(NCc2ccccn2)C(=O)O)cc1` (centres undefined) the Potency was inconclusive: 25.1 µM [inhibitor, single point].
In the case of `CCOC(=O)N1CCC(Nc2ccc(N3C(=O)C4CCCCC4C3=O)cc2[N+](=O)[O-])CC1` (centres undefined), the Potency is reported as inconclusive: 15.8 µM [inhibitor, partial curve].
In the case of `COc1cccc(NC(=S)N(CCCN2CCCC2)Cc2cccn2Cc2ccc(Cl)cc2)c1`, the Potency is reported as inconclusive: 39.8 µM [inhibitor, single point].
With `COc1ccc(/C=N/NC(=O)CN2CCCc3ccccc32)c(OC)c1` the Potency was inconclusive: 39.8 µM [inhibitor, single point].
For `CC(=O)N/N=C(\C)CC(=O)Nc1cccc2c1CCCC2`, the “activity, negative = inhibition” value was inactive: -1.59%.
With `CC1=C(C(=O)OC2CCCC2)C(c2ccc(C)o2)C2=C(CC(c3cccs3)CC2=O)N1` (centres undefined) the Potency was inconclusive: 28.2 µM [inhibitor, partial curve].
With `Cc1[nH]c2ccccc2c1SCC(=O)N1CCN(c2ccccc2)CC1` the Potency was inconclusive: 14.1 µM [inhibitor, partial curve].
For `O=[N+]([O-])c1ccc(C(c2sc3nc(-c4ccco4)nn3c2O)N2CCN(Cc3ccccc3)CC2)cc1` (centres undefined), the Potency was inconclusive: 39.8 µM [inhibitor, single point].
For `Cc1cccc(-c2nc3c(c(SCC(=O)N(C)C)n2)CCCC3)c1`, the Potency was inconclusive: 11.2 µM [inhibitor, partial curve].
`O=C(c1ccncc1)c1ccc(N2CCN(C3CC(=O)N(Cc4ccccc4)C3=O)CC2)cc1` (centres undefined) was tested, and the Potency was inconclusive: 20 µM [inhibitor, partial curve].
With `CCOC(=O)c1sc(NC(=O)c2cccc(S(=O)(=O)N3CCc4ccccc43)c2)c(C#N)c1C` the Potency was inconclusive: 31.6 µM [inhibitor, single point].
With `O=C(Nc1ccc2c(c1)OCO2)c1cc(-c2cccc(Cl)c2)on1` the Potency was inconclusive: 1.26 µM [inhibitor, full curve].
With `CCOC(=O)CSCc1c(C#N)c2ccccc2n1C` the “activity, negative = inhibition” value was inactive: 8.52%.
With `NC(=O)c1ccc(-c2ccc(Br)cc2)o1` the “activity, negative = inhibition” value was inactive: 3.83%.
With `C/C(=N\NS(=O)(=O)c1ccccc1)c1cc(Cl)cc(Cl)c1O` the “activity, negative = inhibition” value was inactive: -15.5%.
In the case of `O=C(CC1C(=O)NCCN1Cc1cccc(Oc2ccccc2)c1)NCC1CCOCC1` (centres undefined), the “activity, negative = inhibition” value is reported as inactive: -9.86%.
With `COc1ccc(N2CCN(C(=O)CN=C3NS(=O)(=O)C(c4ccc(C)cc4)=C3C)CC2)cc1` the Potency was inconclusive: 15.8 µM [inhibitor, partial curve].
For `CCCN1CC=C2C(C#N)=C(N)C(C#N)(C#N)C(c3cccc(OC)c3OC)C2C1` (centres undefined), the Potency was inconclusive: 25.1 µM [inhibitor, partial curve].
In the case of `CCn1c(C)nc2cc(C(=O)n3cc(C(=O)c4cc(F)ccc4O)cn3)ccc21`, the Potency is reported as inconclusive: 20 µM [inhibitor, partial curve].
In the case of `CSc1cccc(NC(=S)NCCCN2CCN(c3ccc(F)cc3)CC2)c1`, the Potency is reported as inconclusive: 22.4 µM [inhibitor, partial curve].
With `COC(=O)CCC(=O)Oc1ccc(OC(=O)CCC(=O)OC)cc1` the Potency was inconclusive: 15.8 µM [inhibitor, partial curve].
In the case of `COCCCNC(=O)Nc1ccc2c(c1)N(C)C(=O)CS2`, the Potency is reported as inconclusive: 20 µM [inhibitor, partial curve].
With `COc1ccc(N2CCN(C(c3ccccc3)c3nnnn3Cc3ccc(F)cc3)CC2)cc1` (centres undefined) the “activity, negative = inhibition” value was inactive: -13.7%.
For `CCc1cc(C(c2ccc(OC)c(OC)c2)N2CCOCC2)c(NC(=O)c2ccccc2)s1` (centres undefined), the Potency was inconclusive: 20 µM [inhibitor, partial curve].
In the case of `COc1cc(Cl)c(C)cc1NC(=O)CSc1cc(=O)n(C)c2cc(Cl)ccc12`, the Potency is reported as inconclusive: 5.01 µM [inhibitor, full curve, poor fit].
With `Cc1ccc2nc(Cl)c(CNCc3ccccc3)cc2c1` the Potency was inconclusive: 3.16 µM [inhibitor, partial curve].
`Cn1c(C(=O)OCC(=O)NCc2ccco2)cc2sccc21` was tested, and the Potency was inconclusive: 35.5 µM [inhibitor, single point].
For `CN(C)c1ccc(C(CNC(=O)COc2ccccc2)N2CCOCC2)cc1` (centres undefined), the Potency was inconclusive: 31.6 µM [inhibitor, single point].
`COc1ccccc1C(=O)NCC(=O)N/N=C/c1cc(Br)ccc1OC(=O)/C=C\c1ccco1` was tested, and the Potency was inconclusive: 6.31 µM [inhibitor, partial curve].
For `N#C/C(=C/c1ccc(N2CCCCC2)cc1)c1cccc(F)c1`, the Potency was inconclusive: 7.08 µM [inhibitor, partial curve].
`CC(=O)CSc1nc(-c2ccccc2)[nH]c1S(=O)(=O)c1ccc(C)cc1` was tested, and the “activity, negative = inhibition” value was inactive: 3.33%.
For `Cc1oc(C)c2c(=O)ccc3c(c12)OC(N)=C(C#N)C3c1ccccc1` (centres undefined), the Potency was active: 25.1 µM.
In the case of `COC(=O)c1ccc(Cn2c(=O)cc(C)c3c(C)nn(C)c32)cc1`, the Potency is reported as inconclusive: 2.82 µM [inhibitor, partial curve].
`S=c1[nH]nc(-c2ccco2)n1/N=C/c1ccc(Cl)cc1` was tested, and the Potency was inconclusive: 15.8 µM [inhibitor, partial curve].
In the case of `CCc1ccc(CNC(=O)c2nn(-c3ccc(C)c(C)c3)nc2CO)cc1`, the “activity, negative = inhibition” value is reported as inactive: 16.3%.
For `CCCc1nnc(-c2ccc(OC)cc2)o1`, the Potency was inconclusive: 35.5 µM [inhibitor, single point].
In the case of `Cc1ccccc1CNC(=O)C(=O)NCC(c1ccco1)S(=O)(=O)c1ccc(F)cc1` (centres undefined), the “activity, negative = inhibition” value is reported as inactive: -12.6%.
`CCn1c(C(=O)NCCCc2ccccc2)cc2sccc21` was tested, and the Potency was inconclusive: 14.1 µM [inhibitor, partial curve].
`Cc1nc(C#N)c(N/N=C/c2cccc(Cl)c2)o1` was tested, and the Potency was inconclusive: 7.08 µM [inhibitor, partial curve].
`CC1=NN(c2ccc([N+](=O)[O-])cc2)C(c2ccccc2)C1` (centres undefined) was tested, and the Potency was inconclusive: 15.8 µM [inhibitor, partial curve].
For `CC(C)OC(=O)CSc1n[nH]c(-c2cccnc2)n1`, the “activity, negative = inhibition” value was inactive: 16.9%.
For `Cc1cc(C)c2c(=O)cc(C(=O)NCCc3ccc(S(N)(=O)=O)cc3)oc2c1`, the “activity, negative = inhibition” value was inactive: -1.83%.
`CCOc1cc(-c2nc(-c3ccccc3)c(-c3cc([N+](=O)[O-])ccc3C)[nH]2)ccc1O` was tested, and the Potency was inconclusive: 11.2 µM [inhibitor, partial curve].
With `COc1ccccc1C(=O)NCCn1cc(SCC(=O)NCc2ccco2)c2ccccc21` the Potency was inconclusive: 17.8 µM [inhibitor, single point].

Reference: PubChem BioAssay AID1460 (National Center for Advancing Translational Sciences (NCATS), 2008)
% is scaled to controls: 0 for no effect and ±100 for the full control effect; potency is read from the fitted curve at half-maximal effect; tags tell the direction and shape of the fitted curve.
Also: nearly all actives have a fitted effect of over 55% in size.
